Test results published in patent US20220307013A1, “GENE FRAGMENT OVER[…] METHODOLOGIES, AND USES THEREOF” (priority 2019, published 2022).
Where no end group is shown, it is not given here.

What was measured:
[1] = test system: MCF-7 cells; settings: previous reports; cited from earlier work
[2] = test system: Hs578T cells; experiment: WST-8 cell viability, exogenously delivered TAT-conjugated peptides, Hs578T; format: cell-based; settings: TAT-conjugated peptide 0-100 μM, 24 hours
Procedure: (§1) Engineering Peptides for Exogenous Delivery. Peptides shown in FIG. 3B were fused to an N-terminal cell penetrating motif via a (GS)3 linker sequence (Table 5) and chemically synthesized by GenScript's Custom Peptide Synthesis service at crude purity. For dose response experiments, cells were plated in 96 well plates (n=4) at 50% confluency and peptides were added at the indicated concentrations with cell viability quantified after 24hrs via the WST-8 assay. Cell viability was normalized to that of an untreated control on the same plate.
as §1, with “2D” for “3B”, “sequence” for “sequence (Table 5)”
(§2) After validating the inhibitory activity of these peptide constructs when overexpressed genetically, experiments were performed to see if the peptides could be exogenously delivered as anti-cancer therapeutics. […] (FIG. 4C, Table 6). […]

[3] = test system: MDA-MB-231 cells; experiment: WST-8 cell viability, exogenously delivered TAT-conjugated peptides, MDA-MB-231; format: cell-based; settings: TAT-conjugated peptide 0-100 μM, 24 hours
Procedure: as §1
as §1, with “2D” for “3B”, “sequence” for “sequence (Table 5)”
as §2

[4] = test system: Hs578T cells; experiment: RNA-sequencing of Hs578T cells overexpressing gene fragment; settings: FDR=0.008 and FDR=0.058 respectively

Row | Compound | sensitivity of MCF-7 cells compared with Hs578T and MDA-MB-231 cells [1] | cell viability / growth inhibition [2] | cell viability / growth inhibition [3] | GSEA of gene sets responding to irreversible EGFR inhibitor [4]
1 | COc1cc2ncnc(Nc3ccc(F)c(Cl)c3)c2cc1OCCCN1CCOCC1 [Gefitinib] | less sensitive | – | – | –
2 | MEAPNQALLRILKETEFKKIKVLGSGAFGTVYKGLWIPEGE [EGFR-697] | – | inhibit the growth of Hs578T and MDA-MB-231 cells in a dose dependent manner | inhibit the growth of Hs578T and MDA-MB-231 cells in a dose dependent manner | downregulation of genes identified as downregulated in response to chemical EGFR inhibition, and upregulation of genes identified as upregulated
3 | MRNGMSLHDCLMKALKVRGLQPECCAVFRLLHEHKGKKARL (cysteines drawn unpaired) [RAF1-73] | – | inhibit the growth of Hs578T and MDA-MB-231 cells in a dose dependent manner | inhibit the growth of Hs578T and MDA-MB-231 cells in a dose dependent manner | –
